Assay results published in paper PMC4336329 (PLoS ONE, 2015).
Hit rate of the full screen: of about 310,000 compounds, about 14,000 (4.5%) showed an effect of 50% or more. The effect is printed as a negative number. The list shows a part of the results.

The compounds below were run against human ether-à-go-go-related gene (hERG) potassium channel (human, UniProt Q12809) (assay: primary screen, population patch clamp on CHO cells stably expressing hERG).
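Also: peak tail current of the secondary pulse compared with the same well before compound.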

human ether-à-go-go-related gene (hERG) potassium channel, sequence (Q12809 whole entry, looked up): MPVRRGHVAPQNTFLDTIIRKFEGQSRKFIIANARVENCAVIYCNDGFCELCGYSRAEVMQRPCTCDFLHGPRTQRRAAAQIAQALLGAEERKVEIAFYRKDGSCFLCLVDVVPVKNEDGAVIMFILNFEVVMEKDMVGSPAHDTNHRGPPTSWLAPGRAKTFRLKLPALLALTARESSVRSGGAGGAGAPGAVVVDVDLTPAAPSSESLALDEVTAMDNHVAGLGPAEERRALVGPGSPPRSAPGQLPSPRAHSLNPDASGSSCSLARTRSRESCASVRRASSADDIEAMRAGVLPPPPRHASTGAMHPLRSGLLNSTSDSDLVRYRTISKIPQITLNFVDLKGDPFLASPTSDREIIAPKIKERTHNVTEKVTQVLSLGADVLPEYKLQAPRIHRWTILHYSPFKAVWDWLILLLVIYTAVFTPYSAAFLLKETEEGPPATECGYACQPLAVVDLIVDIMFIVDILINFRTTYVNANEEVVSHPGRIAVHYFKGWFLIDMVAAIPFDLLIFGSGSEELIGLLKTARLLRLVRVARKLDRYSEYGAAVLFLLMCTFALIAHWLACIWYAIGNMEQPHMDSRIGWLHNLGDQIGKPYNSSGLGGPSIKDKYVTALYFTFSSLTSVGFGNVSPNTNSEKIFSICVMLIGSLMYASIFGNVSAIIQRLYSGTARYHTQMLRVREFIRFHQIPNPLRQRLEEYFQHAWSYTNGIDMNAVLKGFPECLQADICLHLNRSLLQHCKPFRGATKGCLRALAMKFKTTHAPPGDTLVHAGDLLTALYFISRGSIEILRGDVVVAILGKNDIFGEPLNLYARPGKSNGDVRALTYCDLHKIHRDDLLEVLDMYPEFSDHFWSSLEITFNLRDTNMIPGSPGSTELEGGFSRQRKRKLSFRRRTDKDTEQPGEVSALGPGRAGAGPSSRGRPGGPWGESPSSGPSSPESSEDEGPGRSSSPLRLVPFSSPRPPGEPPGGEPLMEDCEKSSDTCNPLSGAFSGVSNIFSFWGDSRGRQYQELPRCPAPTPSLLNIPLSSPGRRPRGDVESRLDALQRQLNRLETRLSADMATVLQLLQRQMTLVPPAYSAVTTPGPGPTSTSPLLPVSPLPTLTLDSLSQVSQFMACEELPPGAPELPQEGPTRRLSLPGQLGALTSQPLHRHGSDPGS

Structure (SMILES)	hERG current change (%, negative = inhibition) at 10uM
C#CCNC(=O)C1=C[C@@H](c2ccc(Br)cc2)[C@H](CCCO)[C@@H](OCC)O1	-28.4%
CCn1c(=O)c([N+](=O)[O-])c(NCCc2ccccc2)c2ccccc21	17.7%
COc1cc(C(=O)N/N=C/c2ccc(OC(=O)c3ccccc3)c(OC)c2)ccc1O	19.9%
COc1ccccc1NC(=O)CN1CCN(CC(=O)Nc2ccc(OC)c(OC)c2)CC1	-24.4%
Cc1cc(NC(=O)NCc2ccccc2)c(=O)n(Cc2ccccc2F)c1	18.5%
Cc1ccc(Cn2nnc3c(=O)n(CC(=O)N4CCCc5ccccc54)cnc32)cc1	-4.61%
CCS(=O)(=O)N1CCN(c2ccc(C(=O)NC34CC5CC(CC(C5)C3)C4)cc2[N+](=O)[O-])CC1	-10.9%
Cc1cc2ncn(CC(O)COC3CCCCC3)c2cc1C (stereo not shown)	3.46%
Cc1ccc(CN2CC(C(=O)OCc3ccccc3Cl)CC2=O)cc1 (stereo not shown)	0.354%
Cc1ccc(Cl)c2sc(NC(=O)C3=COCCO3)nc12	6.73%
O=CNC1CCCc2c1[nH]c1ccc(Cl)cc21 (stereo not shown)	-9.15%
O=C(CCN1CCN(S(=O)(=O)c2ccc(Cl)cc2)CC1)Nc1ccc(F)cc1	-35.2%
CCc1ccc(S(=O)(=O)/N=C2\C=CC(=O)c3ccccc32)cc1	7.42%
O=C(Cn1nc(CNc2ccc(Cl)cc2)[n+]2c1CCCCC2)c1ccccc1.[Br-]	9.17%
COc1cc(NC(=O)C2C3CCC(O3)C2C(=O)O)cc(OC)c1 (stereo not shown)	26.1%
Cc1cccn2cc(-c3ccc4c(c3)NC(=O)CO4)nc12	-26.9%
Cn1cccc1CC(=O)N/N=C/c1ccc(Cl)cc1	2.15%
COc1cc(-c2cc(-c3ccc(F)cc3)nc(N)c2C#N)ccc1O	17.9%
COc1ccc(C(CCNCc2ccc(OC)c(OC)c2)c2ccc(F)cc2)cc1 (stereo not shown)	-71.3%
O=P(NC(c1ccccc1)c1ccccc1)(Oc1ccccc1)Oc1ccccc1	-8.12%
S=C(NC1CCCCC1)N1CCN(C/C=C/c2ccccc2)CC1	-21.8%
COc1ccc2c3c([nH]c2c1)C(C)NCC3 (stereo not shown)	-2.31%

Structure (SMILES)	hERG current change (%, negative = inhibition) at 10uM
COc1cc2c(C)nc3c(cnn3-c3ccccc3)c2cc1OC	-16.1%
Cc1cc(C)n(-c2ccc(C(=O)OCC(=O)Nc3ccc(S(=O)(=O)N4CCCCC4)cc3)cc2)n1	25.2%
CC(C)COC(=O)N1CC(O)CC1C(=O)Nc1ccc2c(c1)OCO2 (stereo not shown)	2.36%
CC(=O)C[C@H]1c2cc(C(F)(F)F)ccc2S(=O)(=O)N1C1CCCCC1	-4.42%
CCOc1ccc(S(=O)(=O)NCCC(=O)NCCc2ccc(OCC)c(OCC)c2)cc1	8.73%
O=C(COC(=O)CCc1nc2ccccc2c(=O)[nH]1)Nc1ccccc1OC(F)F	16.8%
CN1C(=O)C(=Cc2cc([N+](=O)[O-])ccc2N2CCCCC2)C(=O)N(C)C1=O	19.3%
Cc1ccc(C2=[N+]([O-])C(C)N(O)C2(C)C)o1 (stereo not shown)	3.66%
CC(c1ccccc1)C1CC(=O)N(Cc2ccco2)C1=O (stereo not shown)	25.9%
COc1cc(C(=O)Nc2nc(OC)c(-c3ccccc3)c(OC)n2)cc(OC)c1OC	-0.662%
CCOC(=O)c1c(NC(C)=O)sc2c(OCCN(CC)CC)c(Br)ccc12	-54.8%
COc1ccc(/C=C/C(=O)Nc2ccccc2)cc1S(=O)(=O)N1CCOCC1	-52.2%
Cn1c(=O)n(CCCO)c(=O)c2c1nc1n2CCCN1Cc1ccccc1	-9.65%
COc1cccc(C(C(=O)NC2CCCC2)N(C(=O)c2csnn2)C2CC2)c1 (stereo not shown)	-19.3%
COc1ccc(CNC(=O)C2CCCN2C(=O)NCc2ccccc2)cc1 (stereo not shown)	-22.2%
CC1=C(C(=O)N(C)C)C(c2cccs2)NC(=O)N1 (stereo not shown)	4.82%
CN1CCN(CC(=O)NC23CC4CC(CC(C4)C2)C3)CC1.Cl	4.19%
Cc1ccc(CNC(=O)COC(=O)COc2ccc(C#N)cc2)cc1	-5.35%
COc1ccc(Cl)cc1NC(=O)CN(C)C(=O)C1CC(=O)N(Cc2ccc(C)cc2)C1 (stereo not shown)	-50%
COc1cc(NC(=O)C2COc3ccccc3O2)c(OC)cc1Cl (stereo not shown)	-11.1%
NS(=O)(=O)c1ccc(O)c(N2C(=O)c3cccc4c(C(=O)O)ccc(c34)C2=O)c1	15.7%
CCCCNC(=O)Nc1ccc(C2SCCS2)cc1	4.76%

Structure (SMILES)	hERG current change (%, negative = inhibition) at 10uM
COc1cccc(C(=O)Nc2ccc(-n3nncc3C(C)(C)C)cc2)c1	-60.5%
CCN(CC)S(=O)(=O)c1ccc(NC(=O)c2cccs2)cc1	-19.7%
CC(C)N(C(=O)CN(C#N)c1nc(N(C)C)nc(N(C)C)n1)c1ccccc1	1.98%
O=C(CN1N=C(c2ccc(Cl)cc2)CCC1=O)NCCN1CCc2ccccc2C1	-51.4%
COCCOC(=O)c1c(C)oc2ccc(OCC=C(C)C)cc12	2.18%
OC(CN1CCCCC1)Cn1c2ccccc2c2ccccc21 (stereo not shown)	3.16%
Cc1cccc(CN2CCCC(C(=O)Nc3ccccc3Oc3cccnc3)C2)c1 (stereo not shown)	-43.9%
Brc1ccc2[nH]c3c(c2c1)CCC3	15.9%
CCc1ccc(C(=O)NC(=S)Nc2ccccc2N2CCOCC2)cc1	10.3%
CCc1ccccc1NC(=O)c1cc2sccc2n1C	-5.61%
COC(=O)c1ccccc1NC(=O)C1CC(=O)N(c2ccc(OC)cc2)C1 (stereo not shown)	-26.2%
CC(=O)Oc1ccc(/C=N/NC(=O)c2ccc(N(C)S(=O)(=O)c3ccccc3)cc2)cc1	12.8%
CC(Cc1cccnc1)NC(=O)c1cc(COc2ccc(F)cc2F)on1 (stereo not shown)	-10.4%
O=C(Cn1cc([N+](=O)[O-])cn1)NCc1cc2ccccc2[nH]1	-1.72%
O=C(COC(=O)C1CC2CCCC(C1)C2=O)NNC(=O)c1ccccc1F (stereo not shown)	20.4%
CN1CCN(NS(=O)(=O)c2ccc(Cl)s2)CC1	12.3%
O=C(NCc1ccco1)C(c1ccccc1)N(C(=O)Cc1cccs1)c1ccccc1F (stereo not shown)	4.5%
CC(C)c1ccc(C2(C)NC(=O)N(CC(=O)NCC3COc4ccccc4O3)C2=O)cc1 (stereo not shown)	-24.2%
Cl.O=C(CC(Nc1ccc(F)cc1)c1ccccc1)c1ccccc1 (stereo not shown)	-2.3%
O=C(Cn1cc([N+](=O)[O-])cn1)NCC1CCCO1 (stereo not shown)	14%
Cc1cccc(N2CCN(C(=O)c3ccc(-n4cncn4)c([N+](=O)[O-])c3)CC2)c1C	-58.9%
CCC(C)N(C(=O)CSc1ncnc2sccc12)C1CCS(=O)(=O)C1 (stereo not shown)	-25.2%

Structure (SMILES)	hERG current change (%, negative = inhibition) at 10uM
Cc1cccc(N(C(=O)CNC(=O)c2ccco2)C(C(=O)NC2CCCC2)c2cccnc2)c1C (stereo not shown)	15.1%
O=C(O)c1cn(CCOc2ccccc2Cl)c2ccccc12	18.2%
COc1ccc(N2C3=C(CC4=C2CC(C)(C)CC4=O)C(=O)CC(C)(C)C3)cc1	1.32%
CCOC(=O)Nc1sc(C)c(C)c1C(N)=O	9.44%
Oc1ccc(Cl)cc1-c1cc(-c2ccccc2Cl)[nH]n1	3.63%
CCc1ccccc1NC(=O)N[C@@H](C)C(=O)OC	5.75%
NC(=O)CC(NC(=O)Cc1ccc(Br)cc1)c1ccc(NCc2ccc(F)cc2)c([N+](=O)[O-])c1 (stereo not shown)	3.05%
CCn1c(SC)nnc1-c1nnc(SC)n1CC	-7.09%
COc1cc(C2(c3ccc(O)c(OC)c3)C(=O)N(C)c3ccc(Br)cc32)ccc1O	-52.6%
O=c1oc2ccccc2n1Cc1cccc(F)c1	1.04%
Cc1cc(C)nc(SCCC(=O)Nc2ccccc2Cl)n1	17.4%
COC(=O)CN(c1ccc(C)c(Cl)c1)S(C)(=O)=O	2.66%
O=C(Nc1ccc([N+](=O)[O-])cn1)c1ccc2c(c1)OCO2	27.3%
COc1ccc(C(=O)NCC(=O)N/N=C/c2cn[nH]c2-c2ccccc2)cc1	-4.44%
CC(C)Sc1nnc(NC(=O)CCc2ccccc2)s1	7.44%
COc1cc(/C=C/c2cc(C(=O)O)c3ccccc3n2)cc(OC)c1O	10.3%
COc1cccc(NC(=O)C23CCC(C)(C(=O)O2)C3(C)C)c1 (stereo not shown)	-5.46%
O=C(O)CCc1ccc(-c2ccccc2)n1NC(=O)c1cccs1	26%
O=C(CSc1nnc(-c2ccc3c(c2)OCO3)n1-c1ccccc1)c1ccc(Cl)cc1	13%
CCCCN(CC)c1nc(-c2ccncc2)nc2ccccc12	1.06%
COc1ccc(CCNC(=O)/C=C/c2cc(OC)c(OC)c(OC)c2)cc1OC	15.3%
COc1cc(CNC(=O)C2CC2)ccc1OCc1ccccc1	-11.8%
